For two molecules, binding results are on record in paper PMC5053222.

By UniProt entry, the sequences of proteins in these tests, tags left out. Where a name states a change or a piece, a line headed by the entry shows the natural chain unless it says otherwise. Residues count along the entry.
UniProt Q13418: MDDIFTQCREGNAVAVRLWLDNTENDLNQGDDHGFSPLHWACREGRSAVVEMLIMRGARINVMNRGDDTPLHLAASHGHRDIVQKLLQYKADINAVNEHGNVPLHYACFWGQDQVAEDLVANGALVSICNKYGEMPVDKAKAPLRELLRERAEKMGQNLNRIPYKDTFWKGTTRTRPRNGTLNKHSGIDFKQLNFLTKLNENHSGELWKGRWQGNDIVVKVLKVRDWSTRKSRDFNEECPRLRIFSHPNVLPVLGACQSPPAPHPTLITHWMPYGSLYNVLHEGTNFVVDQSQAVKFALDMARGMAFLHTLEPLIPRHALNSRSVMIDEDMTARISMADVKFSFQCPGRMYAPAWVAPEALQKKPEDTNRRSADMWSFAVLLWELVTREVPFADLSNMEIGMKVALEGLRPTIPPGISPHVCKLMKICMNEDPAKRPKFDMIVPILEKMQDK
ΔN-ILKv5 (ILK construct lacking amino acids 1-63): residues 64-452 of Q13418

What all share (assay): co-IP; mouse anti-v5 antibody cross-linked to protein G magnetic Dynabeads; cleared lysates of EpH4 cell lines stably expressing wt or mutant ILKv5, 1 h at room temperature; washed three times in 150 mM NaCl and two times in 500 mM NaCl wash buffer (10 mM Tris/Cl pH 7.5, 0.5 mM EDTA); immunoblot for αParvin, βParvin and PINCH
(A western blot detects proteins with antibodies after separation by electrophoresis.)

One experiment deals with ILKv5 E359K mutant (UniProt Q13418).
In experiment [1] the target is wild-type Integrin Linked Kinase with a C-terminal v5 tag (wtILKv5) (UniProt Q13418).
Experiment [2] addresses ΔN-ILKv5 (ILK construct lacking amino acids 1-63) (UniProt Q13418).

These are yes or no findings as the source states them, for the method shown. In cells and extracts the contact can be indirect. Some binding calls cover weakened binding; strength is not graded here.

B1: βParvin (protein, UniProt Q9ES46 1-365)
chain: MSSAPPRSPTPRAPKMKKDESFLGKLGGTLARKKKTREVTDLQEEGKSAINSPMAPALVDIHPEDTQLEENEERTMIDPTSREDPKFKELVKVLLDWINDVLAEERIIVKQLEEDLYDGQVLQKLLEKLAHCKLNVAEVTQSEIGQKQKLQTVLEAVQDLLRPHGWPLRWNVDSIHGKNLVAILHLLVSLAMHFRAPIHLPEHVTVQVVVVRKREGLLHSSHISEELTTTTEIMMGRFERDAFDTLFDHAPDKLNLVKKSLITFVNKHLNKLNLEVTDLETQFADGVYLVLLLGLLEDYFVPLHNFYLTPDSFDQKVHNVAFAFELMLDGGLKKPKARPEDVVNLDLKSTLRVLYTLFTKYKDVE
With B1, the binding result is listed as “no binding” with ILKv5 E359K mutant and “binds” in experiment [1].

B2: αParvin (protein, UniProt Q9EPC1 1-372)
chain: MATSPQKSPLVPKSPTPKSPPSRKKDDSFLGKLGGTLARRKKAKEVSEFQEEGMNAINLPLSPISFELDPEDTLLEENEVRTMVDPNSRNDPKLQELMKVLIDWINDVLVGERIIVKDLAEDLYDGQVLQKLFEKLESEKLNVAEVTQSEIAQKQKLQTVLEKINETLKLPPRSIKWNVDSVHAKNLVAILHLLVALSQYFRAPIRLPDHVSIQVVVVQKREGILQSRQIQEEITGNTEALSGRHERDAFDTLFDHAPDKLNVVKKTLITFVNKHLNKLNLEVTELETQFADGVYLVLLMGLLEGYFVPLHSFFLTPDSFEQKVLNVSFAFELMQDGGLEKPKPRPEDIVNCDLKSTLRVLYNLFTKYRNVE
Consider B2, for which the binding entry with ILKv5 E359K mutant is on record as “no binding”; in experiment [1], “binds”; in experiment [2], “binds”.
